Laboratory results from the supplement of paper PMC10126150.
Sequences with one replicate were seen in a single cluster, so their values are uncertain.

Tested on: ATP
Assay: switch fluorescence ratio, 500 uM ATP over buffer (Cy3 cluster intensity, sum of 5 cycles each) (fold (ratio)); higher = stronger signal-on switching upon ATP binding; sequences stand for … in TCGTCGGCAGCGTCAGATGTGTATAAGAGACAGTTTTTTTTTTTTTTTTTTTTTTTTT…TC
Conditions: aptamer strand: ATP DNA aptamer (quencher-CACCTGGGGGAGTATTGCGGAGGAAGG + anchor), 100 nM annealed; ATP concentration: 500 uM; one replicate
How it was run: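 The fluorescence ratio divides summed target-cycle Cy3 intensity by summed buffer-cycle Cy3 intensity for each cluster and is averaged per switch-domain sequence. Cy3-labelled switching-strand clusters on a modified Illumina MiSeq flow-cell were annealed to 100 nM quencher-labelled ATP aptamer, then imaged in selection buffer and again after 15 min with 500 uM ATP at 22 °C. Five such cycles were run, with NaOH stripping and re-annealing between them, and clusters outside 100-1000 RFU were excluded.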
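Note: ATP exposure 15 min at 22 °C before imaging.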

Sequence | switch fluorescence ratio
AGTTGGTAAC | 1
AGTTGTATCC | 0.977
AGTTTAAGTC | 1.03
AGTTTAATAT | 0.972
AGTTTCAATG | 1.01
AGTTTGTAA | 1.02
AGTTTGTTTC | 1.04
AGTTTTGGGA | 1.01
AGTTTTTGC | 0.985
ATAAAAAAAA | 1.08
ATAAAATGCT | 0.989
ATAAAGAGGT | 0.955
ATAAAGCGCA | 0.982
ATAAAGGCTA | 0.973
ATAAAGTCAA | 0.968
ATAAATATAA | 0.992
ATAAATCGCA | 1.01
ATAAATGATG | 0.956
ATAAATTTTA | 1
ATAAATTTTG | 1.06
ATAACCAGA | 1.01
ATAACGTTCT | 1.03
ATAACTCGAC | 1.01
ATAAGATAAT | 0.989
ATAAGATGCA | 1.21
ATAAGATTCG | 1.02

Sequence | switch fluorescence ratio
ATAAGCTTTG | 0.969
ATAAGTAATC | 1.78
ATAAGTGTAA | 1.03
ATAATAATCA | 0.977
ATAATAGAC | 0.969
ATAATAGTAG | 1.04
ATAATGAATT | 0.987
ATAATGGAGG | 0.967
ATAATGGGT | 1.03
ATAATGGTGA | 0.984
ATAATGTAAT | 1.01
ATAATGTTGG | 1.02
ATAATTGGCT | 1.07
ATACAAAGTC | 1.05
ATACAGAGGA | 0.98
ATACAGGAGT | 1
ATACATTAGG | 1.02
ATACCCAGTA | 1.01
ATACCCGGTT | 1.05
ATACCTTCCG | 2.84
ATACCTTGGG | 1.05
ATACCTTTAC | 1.33
ATACGCGCTG | 0.985
ATACGGAGGT | 1
ATACGGCAAG | 1.06
ATACGGCCAG | 1.03

Sequence | switch fluorescence ratio
ATACGGGCCC | 1.04
ATACGGGTTG | 1.04
ATACGGTGTC | 0.931
ATACGTGGCG | 1.04
ATACTAGGTG | 1.74
ATACTATGGC | 0.991
ATACTCTCTC | 1.09
ATACTGATAC | 1.27
ATACTGGCGC | 1.14
ATACTGTTAG | 1.05
ATACTTCATA | 1.02
ATACTTCATC | 1.12
ATAGAGCAGA | 1.01
ATAGATAGAG | 0.956
ATAGATGGG | 0.966
ATAGCAAGTT | 1.06
ATAGCACAAG | 1.03
ATAGCAGCCT | 1.08
ATAGCCCCAA | 1.07
ATAGCCGGGG | 1.02
ATAGCGATGG | 1.31
ATAGCTGTTG | 1.01
ATAGGACAAA | 1.01
ATAGGACTCC | 1.09
ATAGGAGACG | 0.924
ATAGGATCAA | 0.994

Sequence | switch fluorescence ratio
ATAGGCATTA | 0.983
ATAGGGACGG | 0.992
ATAGGGAGTT | 0.933
ATAGGGATAC | 1.19
ATAGGGCAAG | 0.982
ATAGGGGTAA | 0.993
ATAGGGGTG | 1.1
ATAGGTTTGA | 0.974
ATAGTCCGGG | 0.995
ATAGTCTATC | 0.965
ATAGTGGAAC | 0.981
ATAGTGGCGG | 0.974
ATAGTTAT | 0.99
ATAGTTCAGG | 0.982
ATATAAACGA | 1.06
ATATAACGAG | 0.982
ATATACGACG | 0.989
ATATAGCAGC | 1.01
ATATAGGAAA | 1.04
ATATAGGGC | 1.02
ATATATAAGG | 0.983
ATATATGGA | 1.04
ATATCAGGGA | 0.997
ATATCCATGG | 0.97
ATATCCCCAG | 1.27
ATATCCGACG | 1.34

Sequence | switch fluorescence ratio
ATATCCGCGT | 1.27
ATATCCGGTG | 1.04
ATATCGGTTG | 0.991
ATATCTTCGT | 1.02
ATATCTTGGT | 0.967
ATATGCTACG | 1
ATATGGAAGC | 1.03
ATATGGATCC | 1.02
ATATGGATCG | 0.937
ATATGGCGGG | 0.989
ATATGTCGCG | 1.02
ATATGTGAGT | 0.992
ATATGTGGTC | 0.97
ATATGTTAAT | 0.98
ATATTACGAT | 1.04
ATATTACTGG | 1.07
ATATTCCAGT | 1
ATATTCCCGG | 1.05
ATATTGGAAC | 0.957
ATATTGGACA | 1.05
ATATTTAGG | 0.975
ATATTTCCAG | 1.01
ATCAAACGA | 1.02
ATCAAACTGG | 1.01
ATCAAAGGAG | 1
ATCAAATAGA | 1

Sequence | switch fluorescence ratio
ATCAAATAGG | 0.981
ATCAACACGA | 1.02
ATCAAGACGG | 1.05
ATCAAGAGTA | 0.993
ATCAAGCAT | 1.03
ATCAAGGTCA | 1.01
ATCAATCGT | 1.01
ATCAATGAG | 0.972
ATCAATGTCA | 1.02
ATCACACATG | 0.988
ATCACCGATA | 1.08
ATCACCGCGG | 1.01
ATCACCGTTC | 1.05
ATCACGGAGG | 1.05
ATCACGGCAC | 2.08
ATCACGGGTC | 1.01
ATCACGTTCG | 1.04
ATCAGCCAAA | 1.03
ATCAGGCACG | 1.05
ATCAGGGTCG | 1.04
ATCAGGTGGC | 1.36
ATCAGTAGTG | 0.982
ATCAGTCGCT | 0.973
ATCAGTGCTA | 0.994
ATCATACCTA | 1.04
ATCATGGGGC | 0.935

Sequence | switch fluorescence ratio
ATCATTGTAT | 1.03
ATCATTTGCA | 0.993
ATCCAACGTC | 1.07
ATCCAAGGCT | 1.04
ATCCCAAATT | 0.97
ATCCCAGTAT | 1.06
ATCCCGGGTT | 1.02
ATCCCGGTTA | 1.02
ATCCCGTA | 0.989
ATCCCGTGGG | 1.05
ATCCCTAATG | 1.02
ATCCGATAAC | 2.05
ATCCGCCCT | 1.28
ATCCGCTGAG | 2.4
ATCCGGAGTG | 1.18
ATCCGGG | 0.984
ATCCGGTCAA | 1.61
ATCCGGTGGC | 1.06
ATCCGTGCTG | 1.02
ATCCTATGGG | 1
ATCCTCTCTC | 1.07
ATCCTCTGG | 1.02
ATCCTCTTCC | 2.16
ATCCTGCGTT | 1.05
ATCCTGGCCC | 1.08
ATCCTTCTGC | 0.999

Sequence | switch fluorescence ratio
ATCGACAACA | 1.04
ATCGACAGGT | 1.1
ATCGACTCCG | 1.1
ATCGAGGCTG | 1.22
ATCGATTTGG | 0.988
ATCGCCCATG | 1.07
ATCGCCCGCC | 1.14
ATCGCCGGCC | 1.01
ATCGCGATTG | 1.02
ATCGCGGTAT | 1.02
ATCGCTCAGC | 1.06
ATCGCTCGGG | 1.05
ATCGCTGCCC | 1.08
ATCGCTTGTA | 1.02
ATCGGACTAC | 1.39
ATCGGAGTG | 1
ATCGGATAGA | 1.01
ATCGGCGATA | 1.01
ATCGGGCGGC | 1
